According to patent US6780414B2 (priority 1998, dated 2004):

System: S. flexneri-induced PMN transepithelial migration
Assay: PMN transepithelial migration assay across T84 cell monolayers
Conditions: basolateral surface pretreated with 300 μM cadaverine, 30 min, before infection (FIG. 4)

SMILES: NCCCCCN [cadaverine, 1,5-diaminopentane]
- ability of S. flexneri to induce PMN transepithelial migration: substantial decrease
